Settings: Homo sapiens, Thermal, DSC, glycine-HCl 10 mM, reversible: yes

For “Interleukin-1 beta wild type (sequence not shown)”, the Tm (pH 2) was 37 °C, the “heat capacity change of unfolding” value (pH 2) was 1.89 kcal/mol/K and the “unfolding enthalpy (calorimetric)” value (pH 2) was 54.3 kcal/mol. For the same substance, the “unfolding enthalpy (van 't Hoff)” value (pH 2) was 57.9 kcal/mol, the Tm (pH 2.2) was 41 °C and the “heat capacity change of unfolding” value (pH 2.2) was 1.89 kcal/mol/K. The “unfolding enthalpy (calorimetric)” value (pH 2.2) was 63.6 kcal/mol, the “unfolding enthalpy (van 't Hoff)” value (pH 2.2) was 66.3 kcal/mol and the Tm (pH 2.38) was 44 °C. For the same substance, the “heat capacity change of unfolding” value (pH 2.38) was 1.89 kcal/mol/K, the “unfolding enthalpy (calorimetric)” value (pH 2.38) was 59.1 kcal/mol and the “unfolding enthalpy (van 't Hoff)” value (pH 2.38) was 56.2 kcal/mol. The Tm (pH 2.5) was 49 °C, the “heat capacity change of unfolding” value (pH 2.5) was 1.89 kcal/mol/K and the “unfolding enthalpy (calorimetric)” value (pH 2.5) was 78.9 kcal/mol. The “unfolding enthalpy (van 't Hoff)” value (pH 2.5) was 78.2 kcal/mol, the Tm (pH 3) was 53 °C and the “heat capacity change of unfolding” value (pH 3) was 1.89 kcal/mol/K. The “unfolding enthalpy (calorimetric)” value (pH 3) was 84 kcal/mol and the “unfolding enthalpy (van 't Hoff)” value (pH 3) was 88.3 kcal/mol.

Source: FireProtDB (doi:10.1021/bi00197a037)
